Assay results as given in article PMC6143588, “A variant NuRD complex containing PWWP2A/B excludes MBD2/3 to regulate transcription at active genes” (Nature Communications, 2018).
No constants are given. Whether binding was seen depends on the method and setting. For part of these data: Binding seen in cells or lysates may run through a third protein. Some results given as binding are weak or reduced against the parent protein; the word gives no strength. For part of these data: Sequences can lack the tags named with a protein.

Chains of the proteins cited; added tags and fusions are not shown. Residues count along the entry.
His10-Flag3-TEV-MTA1 162-546 (Q13330, residues 162-546): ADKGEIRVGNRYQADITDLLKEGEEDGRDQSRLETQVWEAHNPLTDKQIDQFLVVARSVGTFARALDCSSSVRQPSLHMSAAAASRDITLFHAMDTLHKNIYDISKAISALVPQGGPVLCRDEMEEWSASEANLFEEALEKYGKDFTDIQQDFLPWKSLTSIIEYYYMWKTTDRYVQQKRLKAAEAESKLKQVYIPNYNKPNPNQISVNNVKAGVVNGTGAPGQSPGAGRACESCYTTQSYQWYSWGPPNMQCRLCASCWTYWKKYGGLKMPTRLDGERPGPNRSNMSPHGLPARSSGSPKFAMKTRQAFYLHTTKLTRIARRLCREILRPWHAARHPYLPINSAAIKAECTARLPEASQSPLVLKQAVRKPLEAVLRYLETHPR
His10-Flag3-TEV-MTA1 162-354 (Q13330, residues 162-354): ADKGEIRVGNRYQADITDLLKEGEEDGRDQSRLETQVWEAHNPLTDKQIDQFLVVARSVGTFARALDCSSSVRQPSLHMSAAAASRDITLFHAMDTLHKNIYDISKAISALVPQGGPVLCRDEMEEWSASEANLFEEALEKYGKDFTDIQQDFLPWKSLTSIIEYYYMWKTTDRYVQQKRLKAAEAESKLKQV
UniProt Q13547: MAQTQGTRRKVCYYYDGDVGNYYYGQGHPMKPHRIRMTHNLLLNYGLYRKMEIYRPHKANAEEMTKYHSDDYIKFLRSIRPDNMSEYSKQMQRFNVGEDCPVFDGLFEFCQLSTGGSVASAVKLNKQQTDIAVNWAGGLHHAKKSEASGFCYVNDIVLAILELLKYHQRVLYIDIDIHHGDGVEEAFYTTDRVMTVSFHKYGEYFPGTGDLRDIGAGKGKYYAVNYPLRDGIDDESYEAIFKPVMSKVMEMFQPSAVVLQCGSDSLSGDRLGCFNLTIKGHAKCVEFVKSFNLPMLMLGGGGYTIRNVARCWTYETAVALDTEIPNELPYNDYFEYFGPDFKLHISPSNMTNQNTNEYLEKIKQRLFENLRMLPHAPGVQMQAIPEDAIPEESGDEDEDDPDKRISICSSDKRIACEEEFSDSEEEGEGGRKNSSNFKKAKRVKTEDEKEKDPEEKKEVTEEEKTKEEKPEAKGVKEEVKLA
UniProt P70288: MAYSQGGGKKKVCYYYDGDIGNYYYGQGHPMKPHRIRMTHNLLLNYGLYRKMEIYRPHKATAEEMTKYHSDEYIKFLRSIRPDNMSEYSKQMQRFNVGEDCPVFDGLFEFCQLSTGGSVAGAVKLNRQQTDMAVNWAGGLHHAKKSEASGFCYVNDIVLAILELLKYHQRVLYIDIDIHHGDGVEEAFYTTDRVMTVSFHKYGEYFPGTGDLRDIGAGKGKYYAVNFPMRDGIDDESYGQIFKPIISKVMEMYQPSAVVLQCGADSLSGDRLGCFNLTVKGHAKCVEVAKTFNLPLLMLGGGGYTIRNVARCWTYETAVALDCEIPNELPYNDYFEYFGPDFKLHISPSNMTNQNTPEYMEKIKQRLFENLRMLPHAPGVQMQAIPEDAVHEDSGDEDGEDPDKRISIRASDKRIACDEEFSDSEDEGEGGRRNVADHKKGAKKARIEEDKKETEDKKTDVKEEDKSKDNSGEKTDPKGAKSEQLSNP
UniProt Q8K4B0: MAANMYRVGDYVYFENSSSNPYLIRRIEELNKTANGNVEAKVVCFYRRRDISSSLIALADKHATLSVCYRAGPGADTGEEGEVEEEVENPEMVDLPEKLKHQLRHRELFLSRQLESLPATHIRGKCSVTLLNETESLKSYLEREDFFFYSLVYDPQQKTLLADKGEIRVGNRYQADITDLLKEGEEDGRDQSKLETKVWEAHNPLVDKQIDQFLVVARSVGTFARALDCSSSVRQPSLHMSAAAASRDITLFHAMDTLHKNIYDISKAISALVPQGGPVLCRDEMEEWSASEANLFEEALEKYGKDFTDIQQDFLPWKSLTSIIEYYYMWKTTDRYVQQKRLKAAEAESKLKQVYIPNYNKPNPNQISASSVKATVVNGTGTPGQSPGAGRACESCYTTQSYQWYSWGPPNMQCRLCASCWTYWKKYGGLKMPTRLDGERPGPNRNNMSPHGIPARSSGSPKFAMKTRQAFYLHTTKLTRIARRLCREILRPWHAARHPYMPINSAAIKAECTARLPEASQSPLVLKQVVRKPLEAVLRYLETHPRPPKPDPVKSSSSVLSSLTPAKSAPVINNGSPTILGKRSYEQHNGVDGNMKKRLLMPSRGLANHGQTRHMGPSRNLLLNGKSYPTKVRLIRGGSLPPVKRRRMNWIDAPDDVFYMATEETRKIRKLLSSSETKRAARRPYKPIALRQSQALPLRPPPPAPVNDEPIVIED
UniProt Q6PDQ2: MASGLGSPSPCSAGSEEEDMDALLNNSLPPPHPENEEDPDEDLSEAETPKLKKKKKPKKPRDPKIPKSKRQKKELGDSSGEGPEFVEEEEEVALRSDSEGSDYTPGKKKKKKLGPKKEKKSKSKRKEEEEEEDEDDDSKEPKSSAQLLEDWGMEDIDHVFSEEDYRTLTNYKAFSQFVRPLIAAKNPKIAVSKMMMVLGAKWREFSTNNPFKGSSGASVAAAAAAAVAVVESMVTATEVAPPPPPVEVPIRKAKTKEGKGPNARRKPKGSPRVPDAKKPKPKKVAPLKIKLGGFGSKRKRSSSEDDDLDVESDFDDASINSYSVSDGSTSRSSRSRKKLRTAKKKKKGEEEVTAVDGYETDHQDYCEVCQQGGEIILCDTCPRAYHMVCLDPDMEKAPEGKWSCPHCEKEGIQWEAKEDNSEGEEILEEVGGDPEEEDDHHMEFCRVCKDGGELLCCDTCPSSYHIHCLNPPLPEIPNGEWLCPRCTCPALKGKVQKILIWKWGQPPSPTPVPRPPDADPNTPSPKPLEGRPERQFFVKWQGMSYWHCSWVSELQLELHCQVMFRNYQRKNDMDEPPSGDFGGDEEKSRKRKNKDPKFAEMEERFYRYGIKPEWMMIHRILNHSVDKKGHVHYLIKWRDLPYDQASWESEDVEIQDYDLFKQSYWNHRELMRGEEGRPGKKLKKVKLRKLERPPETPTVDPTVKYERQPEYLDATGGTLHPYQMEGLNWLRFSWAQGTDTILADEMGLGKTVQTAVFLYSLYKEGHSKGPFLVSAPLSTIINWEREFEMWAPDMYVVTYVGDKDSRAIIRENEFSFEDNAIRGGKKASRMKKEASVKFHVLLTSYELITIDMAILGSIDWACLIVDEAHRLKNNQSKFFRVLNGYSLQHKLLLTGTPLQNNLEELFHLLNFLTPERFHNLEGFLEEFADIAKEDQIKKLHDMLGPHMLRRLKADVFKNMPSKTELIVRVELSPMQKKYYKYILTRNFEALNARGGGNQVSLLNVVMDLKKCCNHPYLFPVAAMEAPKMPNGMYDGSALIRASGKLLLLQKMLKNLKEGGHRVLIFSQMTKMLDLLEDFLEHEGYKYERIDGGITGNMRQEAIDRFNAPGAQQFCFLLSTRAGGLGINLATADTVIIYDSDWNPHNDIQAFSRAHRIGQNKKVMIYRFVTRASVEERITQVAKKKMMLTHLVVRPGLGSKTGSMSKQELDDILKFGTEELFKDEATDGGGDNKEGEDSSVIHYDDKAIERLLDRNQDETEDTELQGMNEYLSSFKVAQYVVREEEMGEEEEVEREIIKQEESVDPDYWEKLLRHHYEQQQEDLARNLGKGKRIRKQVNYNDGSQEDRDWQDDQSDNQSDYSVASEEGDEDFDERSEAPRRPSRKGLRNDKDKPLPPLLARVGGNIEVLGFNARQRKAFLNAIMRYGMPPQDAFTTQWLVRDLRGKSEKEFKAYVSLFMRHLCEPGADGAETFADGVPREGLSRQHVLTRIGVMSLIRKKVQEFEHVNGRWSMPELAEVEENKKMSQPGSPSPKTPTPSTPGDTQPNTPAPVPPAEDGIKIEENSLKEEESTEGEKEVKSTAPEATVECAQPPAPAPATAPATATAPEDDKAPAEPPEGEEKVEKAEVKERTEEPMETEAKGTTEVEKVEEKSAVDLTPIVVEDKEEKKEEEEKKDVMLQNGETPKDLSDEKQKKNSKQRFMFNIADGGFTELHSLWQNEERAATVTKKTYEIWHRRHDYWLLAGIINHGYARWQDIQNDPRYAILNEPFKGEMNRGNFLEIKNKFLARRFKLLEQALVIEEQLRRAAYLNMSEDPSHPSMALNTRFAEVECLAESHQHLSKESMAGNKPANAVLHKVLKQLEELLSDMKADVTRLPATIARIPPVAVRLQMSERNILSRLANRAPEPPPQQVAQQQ
UniProt O09106: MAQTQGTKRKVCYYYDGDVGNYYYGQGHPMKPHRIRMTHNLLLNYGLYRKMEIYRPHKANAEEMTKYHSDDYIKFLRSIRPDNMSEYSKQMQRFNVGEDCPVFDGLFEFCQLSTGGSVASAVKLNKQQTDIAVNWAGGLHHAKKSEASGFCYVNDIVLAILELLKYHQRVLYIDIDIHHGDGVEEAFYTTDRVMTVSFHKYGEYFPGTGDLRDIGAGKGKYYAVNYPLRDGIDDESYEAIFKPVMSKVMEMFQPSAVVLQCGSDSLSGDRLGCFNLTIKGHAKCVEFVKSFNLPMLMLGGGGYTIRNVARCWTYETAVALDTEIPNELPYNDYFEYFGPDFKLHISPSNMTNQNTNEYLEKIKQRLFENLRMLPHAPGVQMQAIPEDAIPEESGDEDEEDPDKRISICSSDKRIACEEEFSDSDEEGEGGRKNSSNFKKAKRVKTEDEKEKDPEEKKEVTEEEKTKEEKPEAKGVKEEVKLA

B1: PWWP2A1–373, untagged, co-expressed in HEK293F cells (domain or fragment, UniProt Q96N64 1-373, looked up)
chain: MAAVAAEAAATAASPGEGGAGEAEPEMEPIPGSEAGTDPLPVTATEASVPDGETDGQQSAPQADEPPLPPPPPPPGELARSPEAVGPELEAEEKLSVRVAESAAAAPQGGPELPPSPASPPEQPPAPEEREEPPLPQPVAPALVPPAGGDSTVSQLIPGSEVRVTLDHIIEDALVVSFRFGEKLFSGVLMDLSKRFGPHGIPVTVFPKREYKDKPEAMPLQSNTFQEGTEVKCEANGAVPDDPSPVPHPELSLAESLWTSKPPPLFHEGAPYPPPLFIRDTYNQSIPQPPPRKIKRPKRKMYREEPTSIMNAIKLRPRQVLCDKCKNSVVAEKKEIRKGSSATDSSKYEDKKRRNESVTTVNKKLKTDHKVDG
notes: source: HEK293F, co-transfected, co-purified with FLAG-MTA1 (FLAG resin, gel filtration)

How the values were obtained:
[1] = target: His10-Flag3-TEV-MTA1 162-354 (UniProt Q13330); assay: co-IP + SEC; co-expression in HEK293F of His10-Flag3-TEV-MTA1 162-354 with untagged HDAC1, MBD3 and PWWP2A 1-373; FLAG resin, TEV cleavage, Superdex S200 gel filtration separates two complexes; SDS-PAGE (coomassie)
[2] = target: His10-Flag3-TEV-MTA1 162-546 (UniProt Q13330); assay: co-IP + SEC; co-expression in HEK293F of His10-Flag3-TEV-MTA1 162-546 with untagged HDAC1, RBBP4 and PWWP2A 1-373; FLAG resin, TEV cleavage, Superdex S200 in 25 mM Tris-Cl pH 7.5, 50 mM potassium acetate, 0.5 mM TCEP; SDS-PAGE
[3] = target: T1, Flag-2xStrepII (FS2) tagged full-length PWWP2A (UniProt Q96N64); assay: co-IP; anti-Flag M2 affinity gel, 0.5 mg benzonase-treated mESC nuclear extract, 3 h at 4 °C; 8-10 washes in 25 mM Tris pH 7.5, 300 mM NaCl, 0.2% NP-40; western blot
T1 sequence: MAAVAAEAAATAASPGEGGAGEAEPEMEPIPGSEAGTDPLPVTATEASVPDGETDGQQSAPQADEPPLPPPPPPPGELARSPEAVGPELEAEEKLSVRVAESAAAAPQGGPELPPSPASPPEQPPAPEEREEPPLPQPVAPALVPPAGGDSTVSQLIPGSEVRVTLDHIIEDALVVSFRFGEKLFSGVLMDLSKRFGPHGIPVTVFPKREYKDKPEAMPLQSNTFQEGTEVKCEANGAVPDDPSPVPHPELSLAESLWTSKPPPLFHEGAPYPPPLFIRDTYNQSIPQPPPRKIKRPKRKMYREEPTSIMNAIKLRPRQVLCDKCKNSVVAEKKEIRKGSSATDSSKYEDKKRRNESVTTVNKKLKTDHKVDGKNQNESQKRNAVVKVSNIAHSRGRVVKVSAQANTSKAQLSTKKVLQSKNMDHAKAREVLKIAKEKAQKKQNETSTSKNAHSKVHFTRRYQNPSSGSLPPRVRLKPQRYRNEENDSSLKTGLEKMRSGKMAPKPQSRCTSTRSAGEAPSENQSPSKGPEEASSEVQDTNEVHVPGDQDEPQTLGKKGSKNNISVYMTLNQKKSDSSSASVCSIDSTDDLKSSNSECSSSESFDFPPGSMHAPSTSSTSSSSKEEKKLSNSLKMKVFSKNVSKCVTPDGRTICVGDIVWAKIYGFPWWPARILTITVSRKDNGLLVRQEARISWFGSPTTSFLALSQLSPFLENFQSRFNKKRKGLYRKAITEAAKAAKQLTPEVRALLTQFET

[4] = target: T1, Flag-2xStrepII (FS2) tagged full-length PWWP2A; assay: SEC; nuclear extract of E14 cells stably expressing FS2-PWWP2A, benzonase-treated, on Superose 6 10/300 in 20 mM Tris pH 7.5, 300 mM NaCl; fractions immunoblotted
[5] = target: T2, FS2-PWWP2A 148–373 (UniProt Q96N64); assay: co-IP; anti-Flag M2 affinity gel, 0.5 mg benzonase-treated mESC nuclear extract, 3 h at 4 °C; 8-10 washes in 25 mM Tris pH 7.5, 300 mM NaCl, 0.2% NP-40; western blot
T2 sequence: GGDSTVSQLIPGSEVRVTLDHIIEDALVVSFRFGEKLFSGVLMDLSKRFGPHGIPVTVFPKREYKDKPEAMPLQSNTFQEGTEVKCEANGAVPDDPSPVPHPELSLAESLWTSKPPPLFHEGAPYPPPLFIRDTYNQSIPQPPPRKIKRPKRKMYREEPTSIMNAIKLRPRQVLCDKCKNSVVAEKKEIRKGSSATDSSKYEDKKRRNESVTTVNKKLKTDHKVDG

[6] = target: T3, FS2-PWWP2A 148–649 (UniProt Q96N64); assay: as above
T3 sequence: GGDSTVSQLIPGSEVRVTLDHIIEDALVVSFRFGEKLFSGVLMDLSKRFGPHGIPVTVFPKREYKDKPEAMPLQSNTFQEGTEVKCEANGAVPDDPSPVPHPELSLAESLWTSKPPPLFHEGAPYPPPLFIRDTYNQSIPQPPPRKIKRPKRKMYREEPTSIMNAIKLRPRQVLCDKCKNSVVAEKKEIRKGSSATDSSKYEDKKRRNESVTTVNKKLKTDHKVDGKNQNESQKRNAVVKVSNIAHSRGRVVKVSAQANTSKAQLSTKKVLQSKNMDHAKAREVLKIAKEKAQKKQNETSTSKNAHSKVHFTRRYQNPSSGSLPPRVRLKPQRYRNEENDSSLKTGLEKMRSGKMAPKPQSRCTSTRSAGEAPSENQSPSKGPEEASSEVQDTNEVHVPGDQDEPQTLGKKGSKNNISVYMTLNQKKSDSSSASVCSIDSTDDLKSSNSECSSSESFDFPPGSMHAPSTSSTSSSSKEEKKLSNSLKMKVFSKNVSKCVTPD

[7] = target: T4, FS2-PWWP2A 1–373 (UniProt Q96N64); assay: as above
T4 sequence: B1 chain

[8] = target: T5, FS2-PWWP2A 383–755 (UniProt Q96N64); assay: as above
T5 sequence: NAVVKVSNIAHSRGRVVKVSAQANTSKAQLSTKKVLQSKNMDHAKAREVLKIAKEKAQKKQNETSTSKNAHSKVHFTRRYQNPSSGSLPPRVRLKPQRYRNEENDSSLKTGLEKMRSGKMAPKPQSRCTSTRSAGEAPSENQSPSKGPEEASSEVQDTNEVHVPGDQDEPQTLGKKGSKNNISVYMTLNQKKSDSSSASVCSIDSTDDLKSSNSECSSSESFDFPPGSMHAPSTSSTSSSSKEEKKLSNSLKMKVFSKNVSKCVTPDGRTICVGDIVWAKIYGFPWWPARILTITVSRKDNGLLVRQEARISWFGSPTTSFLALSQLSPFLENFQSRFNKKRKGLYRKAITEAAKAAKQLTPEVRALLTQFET

[9] = target: T6, FS2-PWWP2B (UniProt Q6NUJ5); assay: as above
T6 sequence: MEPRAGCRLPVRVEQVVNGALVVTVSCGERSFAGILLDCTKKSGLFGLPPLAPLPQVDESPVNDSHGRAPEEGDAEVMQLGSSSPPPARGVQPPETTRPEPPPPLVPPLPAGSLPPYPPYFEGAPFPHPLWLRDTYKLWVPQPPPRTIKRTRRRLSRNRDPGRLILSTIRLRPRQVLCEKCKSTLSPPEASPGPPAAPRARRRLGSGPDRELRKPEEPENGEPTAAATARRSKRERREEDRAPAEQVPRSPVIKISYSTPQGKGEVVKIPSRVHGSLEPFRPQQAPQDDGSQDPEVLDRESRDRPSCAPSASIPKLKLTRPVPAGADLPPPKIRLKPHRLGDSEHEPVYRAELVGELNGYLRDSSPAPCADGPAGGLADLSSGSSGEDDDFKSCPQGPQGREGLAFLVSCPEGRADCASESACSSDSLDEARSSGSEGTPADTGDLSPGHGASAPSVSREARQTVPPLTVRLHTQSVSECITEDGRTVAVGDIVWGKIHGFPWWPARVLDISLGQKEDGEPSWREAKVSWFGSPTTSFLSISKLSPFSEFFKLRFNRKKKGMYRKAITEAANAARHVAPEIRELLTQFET

Molecule | binding [1] | binding [3] | binding [8] | binding [9] | other results
HDAC1, untagged, co-expressed in HEK293F cells (from UniProt Q13547 1-482) (enzyme) | binds | – | – | – | binding [2]: binds
HDAC2, endogenous in mESCs (from UniProt P70288 1-488) (enzyme) | – | binds | – | – | –
MTA1, endogenous in mESCs (from UniProt Q8K4B0 1-715) | – | binds | no binding | binds | binding [4]: binds; binding [5]: binds; binding [6]: binds; binding [7]: binds
CHD4, endogenous in mESCs (from UniProt Q6PDQ2 1-1915) (enzyme) | – | no binding | – | no binding | –
HDAC1, endogenous in mESCs (from UniProt O09106 1-482) (enzyme) | – | – | no binding | binds | –
B1 | binds | – | – | – | –
